# Assay results: PubChem BioAssay AID686979 (National Center for Advancing Translational Sciences (NCATS), 2013)
# Among all 420,000 compounds or so, about 50,000 (12%) were called active. Inconclusive results, whose numbers are uncertain, are shown with a selection of clear calls. Calls follow the shape of the dose curve; as a rule, active = well fitted inhibition curve with a large enough effect; inconclusive = small, poorly fitted or top-dose-only effect; inactive = flat fitted curve, though single readings scatter. Potencies of inconclusive entries are left out as doubtful fits.
# Experiment: qHTS for Inhibitors of human tyrosyl-DNA phosphodiesterase 1 (TDP1): qHTS in cells in presence of CPT; also: nearly all actives have a fitted effect of over 55% in size
# Conditions: chicken DT40 Tdp1-/-;hTDP1 cells + 20 nM CPT, ATP luminescence, 48 h; activity change, negative = growth inhibition: at 46.2 µM (top of the series) unless noted
# Summary of the method: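 Chicken DT40 Tdp1-/- cells stably complemented with human TDP1 were seeded at 400 cells/well in medium containing 20 nM camptothecin, exposed to pin-transferred compounds, and grown at 37 °C for at least 48 hr. Viability was read as ATP luminescence.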
# % is scaled to controls: 0 for no effect and ±100 for the full control effect; potency is read from the fitted curve at half-maximal effect; tags tell the direction and shape of the fitted curve.
Structure (SMILES),Potency,"activity change, negative = growth inhibition"
Cc1ccc(NC(=O)c2ccc(NS(=O)(=O)c3cccc4cccnc34)cc2)cc1,"inconclusive [inhibitor, single point]",
O=C(NNc1c(Cl)cccc1Cl)c1sc2ccccc2c1Cl,,inactive: 8.85%
COc1ccc(S(=O)(=O)N2CCOCC2)cc1NC(=O)CSc1ccc(F)cc1,,inactive: -25.4%
O=C(NCc1ccccc1)C1=C[C@H](c2ccc3c(c2)OCO3)C[C@H](OCc2ccc(CO)cc2)O1,active: 6.51 µM,
O=C(Nc1cccc(Cl)c1)c1ccccc1NC(=O)C1CCCCC1C(=O)O (centres undefined),,inactive: -6.06%
CN(C)c1ccc(-c2nccc(Nc3ccc(F)cc3)n2)cc1,"inconclusive [inhibitor, single point]",
NC(=O)C1CC(=O)N(c2ccc(OCc3ccc(Cl)cc3)cc2)C1 (centres undefined),"inconclusive [inhibitor, single point]",
CC1(C(=O)NCc2cccs2)CCN1CCc1ccccc1 (centres undefined),"inconclusive [inhibitor, single point]",
Brc1ccc(C=Nc2ccc(Nc3ccccc3)cc2)s1,"inconclusive [inhibitor, single point]",
O=C(CCC(=O)N1CCN(S(=O)(=O)c2ccccc2)CC1)c1ccc(Br)cc1,"inconclusive [inhibitor, single point]",
Cc1occc1C(=O)Nc1cc(C(C)(C)C)on1,"inconclusive [inhibitor, single point]",
Cc1cc(C)n(-c2ccc(NC(=O)C3CCCCN3Cc3cccc4c3OCO4)cc2)n1 (centres undefined),"inconclusive [inhibitor, single point]",
CCNc1nc(NCC)nc(SCCOc2ccc(C)cc2)n1,active: 20.6 µM,
CCOC(=O)C1=C(Nc2ccc(Br)cc2)CC(C)(O)C(C(=O)OCC)C1c1ccccc1 (centres undefined),,inconclusive: -31.6% [inhibitor]
O=C(NC1CCCCCCC1)c1ccccc1-c1ccccc1,"inconclusive [inhibitor, partial curve, poor fit]",
CC(C)(C)c1cc(C(=O)N/N=C/c2ccc(-c3ccccc3[N+](=O)[O-])o2)n[nH]1,"inconclusive [inhibitor, single point]",
COc1ccc(/C=C2/SC(=O)N(CCC(=O)Nc3ccccc3)C2=O)cc1OC,"inconclusive [inhibitor, single point]",
CC(C)(C)NC(=O)CCCCCCCC(=O)NC(C)(C)C,,inactive: -3.4%
COc1cc(OC)cc(C2=Cc3ccccc3C(CC(=O)c3ccco3)N2c2ccc(-c3ccc(C(N)=O)cc3)cc2)c1 (centres undefined),"inconclusive [inhibitor, single point]",
